Laboratory results as given in PubChem BioAssay AID686978 (National Center for Advancing Translational Sciences (NCATS), 2013).
Hit rate of the full screen: of about 420,000 compounds, about 64,000 (15%) were called active. The inconclusive results got no clear call from the source; some entries with a clear call stand among them for comparison. The call rests on the fitted dose curve; in most records, active means well fitted inhibition curve with a large enough effect; inconclusive means small, poorly fitted or top-dose-only effect; inactive means flat fitted curve, though single readings scatter. Potencies of inconclusive entries are left out as doubtful fits.

assay: qHTS for Inhibitors of human tyrosyl-DNA phosphodiesterase 1 (TDP1): qHTS in cells in absence of CPT; conditions: DT40 Tdp1-/- hTDP1 cells, no CPT, ATP luminescence, 48 h; activity change, negative = growth inhibition: at 46.2 µM (top of the series) unless noted; further: nearly all actives have a fitted effect of over 55% in size
Method in brief: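 Stably hTDP1-transfected Tdp1-null chicken DT40 cells were treated with library compounds minus camptothecin and grown for at least 48 hr at 37 °C, after which cellular ATP was quantified by luminescence.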
On the % scale 0 is the no-effect control and ±100 the full control effect; potency means the concentration at half of the fitted maximal effect; tags describe the fitted curve by direction and shape.

Compound | Potency | activity change, negative = growth inhibition
O=[N+]([O-])c1cc(-c2n(-c3ccccn3)c3ccccc3[n+]2-c2ccccn2)ccc1Cl | active: 23.1 µM | 
O=C(c1ccco1)N1CCN(C(c2ccccc2Cl)c2nnnn2Cc2cccs2)CC1 (centres undefined) | active: 25.9 µM | 
COc1ccc(C(C)C)cc1S(=O)(=O)N1CC(C)OC(C)C1 (centres undefined) | inconclusive [inhibitor, single point] | 
COC(=O)N/C(C)=C1/NC(=O)c2ccccc2C(c2ccccc2)N1 (centres undefined) |  | inconclusive: -30.8% [inhibitor]
CCc1nnc(SCC(=O)Nc2ccc(F)cc2)o1 | inactive | 
Cc1ccc2nc(SCC(=O)Nc3cccc(S(=O)(=O)N(C)C)c3)[nH]c2c1 | active: 16.4 µM | 
CC(CC(=O)Nc1ccc2c(c1)c(=O)n(C)n2Cc1cccc(C(F)(F)F)c1)C(F)(F)F (centres undefined) | inconclusive [inhibitor, full curve, poor fit] | 
COc1ccccc1-c1cc(NC(=O)COc2ccc(C)c(C)c2)n(-c2ccccc2)n1 | inconclusive [inhibitor, single point] | 
Cc1cccc(NC(=O)c2ccc3c(c2)CCN3S(C)(=O)=O)c1C | inactive | 
COc1ccc(C(=O)NCc2ccc3c(c2)OCO3)cc1S(=O)(=O)N(C)Cc1ccccc1 | inconclusive [inhibitor, single point] | 
O=C(Nc1cccc2ncccc12)c1ccc(Br)c([N+](=O)[O-])c1 | inconclusive [inhibitor, single point] | 
CN(Cc1cnn(Cc2ccccc2)c1)C(=O)c1cccc(S(=O)(=O)N2CCOCC2)c1 | active: 5.8 µM | 
Cc1cccc(N(C)S(=O)(=O)c2c(C(=O)N3CCCCCC3)c(C)n(C)c2C)c1 | active: 20.6 µM | 
Cc1ccc(Nc2nc(NCCO)c3ccccc3n2)cc1C | active: 16.4 µM | 
COc1ccc(NC(=O)c2c(NCc3cccc(F)c3)sc3c2CCCC3)c(OC)c1 | inconclusive [inhibitor, single point] | 
CCOc1ccc2nc(NC(=O)CSc3nc(SC)ns3)sc2c1 | inconclusive [inhibitor, single point] | 
NC(=S)NNc1cccc2cccnc12 | active: 11.6 µM | 
Cn1c(SCC(=O)Nc2ccc3cn[nH]c3c2)nnc1-c1cnccn1 |  | inconclusive: -13.6% [inhibitor]
CC(=O)N1CCc2cc(Br)cc(S(=O)(=O)NCC3CCCO3)c21 (centres undefined) | inactive | 
COC(=O)CCCC1=CC2=CC(=O)C(C)(OC(=O)c3cccs3)C(=O)C2=CN1c1cccc(C#N)c1 (centres undefined) | inactive | 
CCc1nnc(NC(=O)C(C)N2C(=O)C3C4C=CC(C4)C3C2=O)s1 (centres undefined) | inactive | 
CC(=O)Nc1ccc(-c2csc(-c3cccnc3)n2)cc1 | inconclusive [inhibitor, single point] | 

Compound | Potency | activity change, negative = growth inhibition
Cc1nc(Oc2ccccc2)c2ccccc2n1 | inconclusive [inhibitor, single point] | 
Cc1ccc(-c2nc(NCc3ccc(F)cc3)n(S(C)(=O)=O)n2)cc1 | inconclusive [inhibitor, single point] | 
N/C(=N\OC(=O)Cc1ccc(-c2ccccc2)cc1)c1ccccn1 | inconclusive [inhibitor, partial curve, poor fit] | 
O=C(CNc1cccc(S(=O)(=O)N2CCCC2)c1)Nc1cccc(Br)c1 | active: 20.6 µM | 
O=C(Cn1ccc2ccccc2c1=O)NCC(=O)N1CCN(c2ccccc2F)CC1 | inactive | 
COc1ccc(C2=NOC(C(=O)N3CCN(c4ccccc4OC)CC3)C2)cc1 (centres undefined) | active: 23.1 µM | 
COC(=O)Cn1c(=NC(=O)c2sc3ccccc3c2Cl)sc2cc(S(N)(=O)=O)ccc21 | inconclusive [inhibitor, partial curve, poor fit] | 
CCOc1ccc(CCNC(=O)c2cnc3sc(N4CCCCCC4)nn3c2=O)cc1 | active: 18.4 µM | 
CCCn1c(=O)c(C(=O)NNC(=O)c2ccc(Cl)cc2Cl)c(O)c2ccccc21 | inconclusive [inhibitor, single point] | 
Cc1cc(=O)n2nc(N3CCCC(C(=O)N4CCc5ccccc54)C3)sc2n1 (centres undefined) | inconclusive [inhibitor, single point] | 
COCC(=O)Nc1nnc(COc2ccccc2)s1 | inactive | 
O=C(Cc1csc(NC(=O)Nc2ccc(Cl)cc2)n1)NC1CCCC1 | inconclusive [inhibitor, single point] | 
Cc1nc(C(=O)Nc2cccc(Cl)c2)nn1-c1cc(OC(C)C)c(Cl)cc1Cl | inconclusive [inhibitor, single point] | 
CC1=Nc2ccccc2N=C(NC(=O)CN2CCN(c3ccccc3)CC2)C1c1ccccc1 (centres undefined) | inconclusive [inhibitor, single point] | 
O=C(Nc1ccccc1N1CCN(C(=O)c2ccc(Cl)cc2)CC1)c1cccc([N+](=O)[O-])c1 | inconclusive [inhibitor, single point] | 
CCOC(=O)/C=C1\CN(Cc2ccc(OC)cc2)S(=O)(=O)c2ccccc21 | inconclusive [inhibitor, single point] | 
COc1ccc(-c2cc(C(F)(F)F)nc(SCC(=O)NCc3ccc(Cl)cc3)n2)cc1 | inconclusive [inhibitor, partial curve] | 
CCn1cc(C(=O)O)c(=O)c2cc(F)c(N3CCN(C(=S)NC(=O)c4ccc(F)cc4)CC3)cc21 | inconclusive [inhibitor, partial curve] | 
COc1cccc(-c2ncc3ccccc3c2COC(=O)c2ccc(C(C)(C)C)cc2)c1 | inconclusive [inhibitor, single point] | 
O=C(Nc1ccncc1)c1ccc2c(c1)S(=O)(=O)c1ccccc1C2=O | active: 11.6 µM | 
COc1ccc(OC)c(NC(=O)CN2CCCN(Cc3cc(C)ccc3C)S2(=O)=O)c1 | active: 18.4 µM | 
COc1ccc(-c2nc(N)ncc2Oc2ccccc2Br)c(O)c1 | inconclusive [inhibitor, single point] | 
